The values below come from paper PMC10278067 (ACS Chemical Biology, 2023).

This experiment addresses T1, HER2 on MC38-HER2 cells (Homo sapiens (; inferred from …, UniProt P04626).
T1 construct: HER2, stably expressed on MC38 murine colon adenocarcinoma cells; source: HER2-transduced MC38 mouse colon cancer cells, stably expressing, on cells
The experiment can be described thus: flow cytometry on cells; MC38-HER2 cells stained with 100 nM αHER2 SwAb or αHER2-Fc, 4 °C 30 min; then with or without 10 μM Venetoclax, 37 °C 1 h; detected with A647 anti-human Fc antibody. To be noted: one partner purified. For orientation: In flow cytometry, cells or beads pass a laser one at a time.

B1: Fc-fused αHER2 (conventional αHER2 antibody) (Fc fusion)
VH: EVKLVESGGGLVQPGGSLRLSCATSGFNIKDTYIHWVRQAPGKGLEWVARIYPTNGYTRYADSVKGRFTISADTSKNTAYLQMNSLRAEDTAVYYCSRWGGDGFYAMDYWGQGTTVTVSS
VL: [about 100 residues not spelt out]
notes: also called αHER2-Fc
Consider B1, for which the binding result is reported as “binds”.
